# Reference: PubChem BioAssay AID624417 (National Center for Advancing Translational Sciences (NCATS), 2012)
# Out of some 410,000 compounds screened, about 6,400 (1.6%) were called active. This list was built around the results that the source calls inconclusive (neither active nor inactive); the mix of calls is not that of the screen. The call rests on the fitted dose curve; in most records, active means well fitted inhibition curve with a large enough effect; inconclusive means small, poorly fitted or top-dose-only effect; inactive means no such curve, though single readings can be large or run the other way. Potencies of inconclusive entries are left out as doubtful fits.
# Biological target: Glucagon-like peptide 1 receptor (Homo sapiens) (UniProt P43220)
# Chain of UniProt P43220 (P43220 whole entry, looked up): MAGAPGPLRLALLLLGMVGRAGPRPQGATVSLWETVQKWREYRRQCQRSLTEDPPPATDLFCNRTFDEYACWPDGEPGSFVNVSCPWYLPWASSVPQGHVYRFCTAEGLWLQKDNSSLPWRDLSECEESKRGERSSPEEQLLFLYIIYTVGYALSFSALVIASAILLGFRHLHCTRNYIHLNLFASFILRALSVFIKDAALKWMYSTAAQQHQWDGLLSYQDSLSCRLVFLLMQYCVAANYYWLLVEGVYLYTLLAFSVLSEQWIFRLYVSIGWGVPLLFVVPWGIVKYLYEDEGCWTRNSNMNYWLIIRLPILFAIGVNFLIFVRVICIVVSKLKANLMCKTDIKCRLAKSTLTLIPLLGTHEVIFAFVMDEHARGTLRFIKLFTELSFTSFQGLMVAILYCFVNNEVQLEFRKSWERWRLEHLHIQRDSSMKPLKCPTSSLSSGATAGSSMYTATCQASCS
# Assay: qHTS of GLP-1 Receptor Inverse Agonists (Inhibition Mode); further: nearly all actives have a fitted effect of over 55% in size
# Settings: HEK293 GLP-1R CRE-luciferase, luminescence, 24 h, GLP-1R form is constitutively active; series mostly up to 38.3 µM
# Procedure, shortened: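 Seeding at 200 cells/uL, 12 h culture, 24 hr compound treatment, then luciferase reagent and a luminescence read; cells are HEK293 stably expressing a constitutively active GLP-1R plus cAMP-responsive luciferase.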
# Potency means the concentration at half of the fitted maximal effect; tags describe the fitted curve by direction and shape.
row,Structure (SMILES),Potency
1,Cc1cccc(N2CCN(S(=O)(=O)c3ccc(-c4coc(C)n4)cc3)CC2C)c1 (centres undefined),"inconclusive [inhibitor, single point]"
2,O=C(NC1CCCCC1)N1CCc2[nH]c3ccccc3c2C1,"inconclusive [inhibitor, partial curve, poor fit]"
3,Cc1ccc(-c2noc(CN(C(=O)c3ccc4c(c3)OCO4)C(C)C)n2)cc1,"inconclusive [inhibitor, single point]"
4,COc1cccc(C(=O)N/N=C/c2ccc(OC3CSC3)cc2)c1,"inconclusive [inhibitor, partial curve, poor fit]"
5,Oc1c(Br)cc(Cl)cc1C=Nc1ccc(N2CCOCC2)cc1,inactive
6,NC(=S)N=Nc1ccc(O)cc1,inactive
7,O=C(c1ccc(N2CCCC2=O)cc1)N1CCN(c2ccccc2Cl)CC1,"inconclusive [inhibitor, partial curve, poor fit]"
8,Cc1cccc(NC(=S)NNC(=O)c2cc3c(s2)CCC(C)C3)c1C (centres undefined),"inconclusive [inhibitor, single point]"
9,CCc1nc(Nc2ccccc2)c2nnn(Cc3ccccc3)c2n1,"inconclusive [inhibitor, single point]"
10,CC(=O)c1ccc(N2CCN(C(=O)C3CCCN(c4ncnc5c4nc4n5CCCCC4)C3)CC2)cc1 (centres undefined),"inconclusive [inhibitor, single point]"
11,Cc1c(C)n(Cc2ccccc2)c2ncnc(NCCN(C)C)c12,"inconclusive [inhibitor, partial curve, poor fit]"
12,CC(C)c1ccc(CC(=O)N2CCC2(C)C(=O)NCc2cccc3ccccc23)cc1 (centres undefined),"inconclusive [inhibitor, single point]"
13,Nc1cc(-c2ccccc2)nn1S(=O)(=O)c1ccc(F)cc1,"inconclusive [inhibitor, partial curve, poor fit]"
14,O=C(NCCc1ccc(F)cc1)C(=O)NCC(c1cccs1)S(=O)(=O)c1ccc(F)cc1 (centres undefined),"inconclusive [inhibitor, single point]"
15,O=C(Cn1c(=O)c2c(ncn2C2CCCC2)n(Cc2ccccc2)c1=O)N1CCc2ccccc21,"inconclusive [inhibitor, partial curve, poor fit]"
16,CC1CC1C(=O)N1CCN(S(=O)(=O)c2cc(C(F)(F)F)cc(C(F)(F)F)c2)CC1 (centres undefined),"inconclusive [inhibitor, single point]"
17,Cc1ccc(-c2cn3nc(N4CCCC(C(=O)Nc5ccc(F)cc5)C4)sc3n2)cc1 (centres undefined),"inconclusive [inhibitor, single point]"
18,O=C(Cc1ccc(F)cc1)Nc1nnc(-c2ccc(F)cc2)o1,"inconclusive [inhibitor, partial curve, poor fit]"
19,Cc1cccc(Nc2nc(-c3cccs3)cs2)n1,"inconclusive [inhibitor, partial curve, poor fit]"
20,Cc1ccc(C2CC2C(=O)NNC(=S)Nc2cccc(Cl)c2)cc1 (centres undefined),"inconclusive [inhibitor, single point]"

row,Structure (SMILES),Potency
1,Cc1ccc(N(Cc2ccccc2O)C(=O)c2ccccc2F)cc1,"inconclusive [inhibitor, partial curve, poor fit]"
2,CC(C)Oc1ccc(C(=O)NCc2cccs2)cc1,"inconclusive [inhibitor, partial curve, poor fit]"
3,O=C(N/N=C/c1ccc(F)cc1)c1cc(-c2ccc3c(c2)OCO3)n[nH]1,"inconclusive [inhibitor, single point]"
4,CS(=O)(=O)N(CC(=O)N1CCN(c2cccc(Cl)c2)CC1)c1cccc(F)c1,"inconclusive [inhibitor, partial curve, poor fit]"
5,Cc1ccc(CNC(=O)[C@@H](NC(=O)Cc2ccccc2)C(C)C)cc1,"inconclusive [inhibitor, single point]"
6,Cc1ccc2c(c1)C(=O)OC(C(=O)Nc1ncc(Cc3ccc(C(C)C)cc3)s1)C2 (centres undefined),inactive
7,C=CCNc1ncnc2c1ncn2[C@H]1CN(Cc2ccc(-c3ccccc3)cc2)C[C@@H](CO)O1,"inconclusive [inhibitor, partial curve]"
8,CCN(C(=O)CCS(=O)(=O)c1cc2[nH]c(=O)c(=O)[nH]c2cc1C)c1ccccc1,inactive
9,CCC1CCCCN1CCCNC(=O)c1[nH]c2ccccc2c1Sc1ccc(Cl)cc1 (centres undefined),"inconclusive [inhibitor, partial curve, poor fit]"
10,Cc1c(Br)cnn1C(C)C(=O)N1CCN(c2ccccc2F)CC1 (centres undefined),"inconclusive [inhibitor, partial curve, poor fit]"
11,CC(C)c1ccc(NC(=S)NC2CC3C=CC2C3)cc1 (centres undefined),"inconclusive [inhibitor, single point]"
12,Clc1ccc(OCCSCc2nc3ccccc3[nH]2)cc1,"inconclusive [inhibitor, single point]"
13,N/C(=N\OC(=O)COc1ccc2ccccc2c1)c1ccncc1,"inconclusive [inhibitor, single point]"
14,S=C(NCCc1ccccc1)Nc1ccc(N2CCCCC2)cc1,"inconclusive [inhibitor, single point]"
15,COc1cccc(CNC(=O)C(CC(C)C)NS(=O)(=O)c2ccc3c(c2)oc(=O)n3C)c1 (centres undefined),inactive
16,CCOC(=O)c1c(-c2ccccc2)oc2cc(Br)c(O)cc12,"inconclusive [inhibitor, partial curve]"
17,CCCCN(CC)CCNC(=O)CCn1cnc2onc(-c3ccc(F)cc3)c2c1=O,"inconclusive [inhibitor, partial curve, poor fit]"
18,COc1ccc(NC(=O)c2sc3nc(-c4cc5ccc(OC)cc5oc4=O)[nH]c(=O)c3c2C)cc1,inactive
19,CCn1c(/C=C/c2ccccc2Cl)nc2ccccc2c1=O,"inconclusive [inhibitor, partial curve]"
